Source: patent EP4692351A1, “ANTI-CD25 ANTIBODY AND ANTI-CD25 ANTIBODY-DRUG CONJUGATE” (priority 2023, dated 2024)

Test system: CD25-positive human tumor cell line Karpas-299
Test: Cell proliferation suppression assay, CD25-positive Karpas-299
Assay type: cell-based
Conditions: antibody 0.015 to 15 µg/mL, ADC 0.0015 to 1.5 µg/mL; 6 days; CellTiter-Glo
Procedure: A CD25-positive human tumor cell line Karpas-299 was subcultured in RPMI1640 (Thermo Fisher Scientific Inc.) medium containing 2 mM glutamine (Life Technologies Corp.) and 20% FBS under conditions of 37°C and 5% CO2. A CD25-negative human tumor cell line Daudi was subcultured in RPMI1640 medium containing 10% FBS under conditions of 37°C and 5% CO2.
The cultured Karpas-299 was inoculated at 1 × 10^3 cells/50 µL/well in RPMI1640 medium containing 2 mM glutamine and 20% FBS to 96 well clear U bottom microplate (Corning Inc.). cMAb1_hIgG1LALA was added at 0.015 µg/mL to 15 µg/mL, and control hIgG1LALA-ADC and cMAb1_hIgG1LALA-ADC were added at 0.0015 µg/mL to 1.5 µg/mL. The cells were cultured for 6 days under conditions of 37°C and 5% CO2. The incubated plate was left standing at room temperature for 30 minutes. […] 100 µL of the solution of each well was added to each well of 96 well white flat bottom microplate (Corning Inc.), and luminescence intensity (relative light unit (RLU)) was measured using a plate reader (Ensight: PerkinElmer, Inc.) and used as an index for the number of cells. […]
The test was carried out in accordance with 9)-1-2. […] 100 µL/well of the reaction solution was transferred to 96-well White Flat Bottom plate, and luminescence intensity (relative light unit (RLU)) was measured using a plate reader (Ensight: PerkinElmer, Inc.) and used as an index for the number of cells.

B1: hMAb1A-ADC (conjugate)
heavy: EVQLVESGGGLVQPGGSLRLSCAASGFTFNNYYMVWVRQAPGKGLEWVAYISTGGGTTYYRESVKGRFTISRDNSKSTLYLQMNSLRAEDTAVYYCTTSVYFSDGSSHYDGEWFAYWGQGTLVTVSS[letters of human IgG1 constant region left out]
light: DIVMTQSPDSLAVSLGERATINCKASESVSTRMHWYQQKPGQPPKLLIYKASNLASGVPARFSGSGSGTDFTLTISSLQAEDVAVYYCQQSWNGWAFGQGTKVEIKRTVAAPSVFIFPPSDEQLKSGTASVVCLLNNFYPREAKVQWKVDNALQSGNSQESVTEQDSKDSTYSLSSTLTLSKADYEKHKVYACEVTHQGLSSPVTKSFNRGEC
  cell proliferation suppressive activity against Karpas-299: exhibited cell proliferation suppressive activity at a lower concentration
